Paper PMC9574860, “Chemical Toolkit for PARK7: Potent, Selective, and High-Throughput” (Journal of Medicinal Chemistry, 2022)
The campaign covered roughly 7,900 compounds. About 400 (5.1%) showed an effect of 50% or more. The list shows a part of the results.

biological target: Parkinson's disease protein 7 (PARK7/DJ1) (human, UniProt Q99497); assay: primary screen, percent inhibition; read as competition with a fluorescent probe by fluorescence polarization; higher = more effect of the substance; settings: 100 µM
Sequence (Q99497 whole entry, looked up, the tested form may be a part): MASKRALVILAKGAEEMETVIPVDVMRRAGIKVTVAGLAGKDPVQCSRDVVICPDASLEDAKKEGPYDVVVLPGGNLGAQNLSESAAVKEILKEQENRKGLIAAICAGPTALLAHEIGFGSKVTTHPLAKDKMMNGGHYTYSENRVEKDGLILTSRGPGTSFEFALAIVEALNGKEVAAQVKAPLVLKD
Summary of the method: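 Covalent fragments at 100 μM final were incubated 2 h with 0.2 μM PARK7, then 20 nM probe JYQ-107 added for a further 2 h. Fluorescence polarization read at 480/520 nm; relative FP loss versus reference controls gave remaining enzyme activity.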

| Compound | Inhibition % [%] |
| --- | --- |
| CCc1ccnc(C#N)c1 | 4 |
| COc1cc(S(=O)(=O)n2ccc(C)n2)ccc1Cl | 17.7 |
| CC(C)N(C(=O)Cn1cnc(C#N)n1)C1CCCCC1 | 0.146 |
| Cl.O=S(=O)(F)CCNc1ccc(Cl)cc1 | 66 |
| Cc1cc(C)cc(-c2nnc(SC3CCOC3=O)o2)c1 (centres unmarked) | 36.4 |
| O=C(CCl)NCC1CCC1 | 12.8 |
| CC1(C)OB(c2ccc(S(N)(=O)=O)c(Cl)c2)OC1(C)C | 2.85 |
| CC1(C)OB(CC2CC3(CCNC3)C2)OC1(C)C.Cl (centres unmarked) | 0.986 |
| CC1(C)OB(C2CCCNC2)OC1(C)C.Cl (centres unmarked) | 21.4 |
| N#Cc1ccnc(S)c1 | 67 |
| C=CC(=O)NC1CCCN(c2cnn(C)c2)C1 (centres unmarked) | 31.2 |
| Cc1ccc(C=CC(=O)N2CCN(S(C)(=O)=O)CC2)o1 | 16.4 |
| O=C(CCl)Nc1nnc(C2CCCO2)o1 (centres unmarked) | -4.86 |
| O=c1[nH]c(S)nc2cc(Cl)ccc12 | 6.16 |
| N#Cc1nccnc1N1CC=C(c2ccccc2F)CC1 | -0.449 |
| c1cnc2c(c1)C1OC1c1cccnc1-2 (centres unmarked) | 26.9 |
| C=CC(=O)N1CC(NC(=O)C2CC2)C1 | 6.32 |
| CC(C)NC(=O)C(C#N)=Cc1ccc(O)c(Cl)c1 | 1.49 |
| Cn1ncc(C(F)(F)F)c1B1OC(C)(C)C(C)(C)O1 | 8.08 |
| Cc1csc(C(C#N)=Cc2ccc(C(=O)O)cc2)n1 | 7.8 |
| Sc1ccc(Cl)nn1 | 53.5 |
| CN1CCOC(c2cccc(B3OC(C)(C)C(C)(C)O3)c2)C1.Cl (centres unmarked) | 1.38 |
| CN(C)c1ccc(C=C(C#N)C(=O)N2CCC2)cc1 | -2.52 |
| O=C(CCl)Nc1nc2c(F)c(F)c(F)cc2s1 | -4.93 |
| CC1(C)OB(c2sccc2C#N)OC1(C)C | 3.29 |

| Compound | Inhibition % [%] |
| --- | --- |
| O=C(CCl)NC(=O)Nc1ccc(Br)cc1 | 23.3 |
| C=CC(=O)N1CCCC(C(=O)O)C1 (centres unmarked) | 5.18 |
| N#Cc1ccnc(C(=O)O)c1 | 1.71 |
| Cc1ccc2oc(=O)n(S(C)(=O)=O)c2c1 | 38.3 |
| C=CC(=O)N1CCC[C@H]1Cn1cc(C2CC2)nn1 | 7.52 |
| N#Cc1c(NC(=O)c2cccc(F)c2F)nc2n1CCS2 | 10.5 |
| Cc1nc(Cl)cc(C#N)n1 | 3.59 |
| O=C(CS)Nc1ccccc1F | 81.5 |
| COc1ccccc1NC(=O)CCCl | 15.3 |
| C=CC(=O)N1CC(C)S(=O)(=O)C(CC)C1 (centres unmarked) | 6.18 |
| NC(=O)CC1CCN(S(=O)(=O)C=Cc2ccccc2)CC1 | 5.56 |
| N#Cc1nc(N[C@@H]2C=C[C@H](CO)C2)sc1Cl | 8.78 |
| Cc1nc(S)c2c(=O)n(C)c(=O)n(CC(C)C)c2n1 | -2.59 |
| Cc1nn(C)c(Cl)c1C=CC(=O)N1CCN(C)CC1C (centres unmarked) | 14.1 |
| CCC1CN(C(=O)CCl)CCO1 (centres unmarked) | 33.6 |
| C=CC(=O)Nc1ccc2c(C)noc2c1 | 4.18 |
| Cc1cnc(CNc2ccc(C#N)nc2)o1 | 2.1 |
| CNC(=O)N1CCN(S(=O)(=O)C=Cc2ccccc2)CC1 | 4.54 |
| COc1cc(S(=O)(=O)F)ccc1O | 17.3 |
| CC(CCc1cccn1C)Nc1nccnc1C#N (centres unmarked) | 1.08 |
| CN(C(=O)CCl)C1CCS(=O)(=O)C1 (centres unmarked) | 8.14 |
| C=CC(=O)NC1CCc2nc(C(C)C)nn2C1 (centres unmarked) | 9.96 |
| O=C(NCCC(O)c1ccccc1)c1cccnc1S (centres unmarked) | 3.79 |
| Cl.ClCCN1CCSCC1 | 5.12 |
| COc1ccc(B2OC(C)(C)C(C)(C)O2)cn1 | 3.67 |

| Compound | Inhibition % [%] |
| --- | --- |
| Cc1ccc(-n2nnnc2SC2CCOC2=O)cc1 (centres unmarked) | 4.59 |
| C=CC(=O)Nc1cccc(Br)c1 | 2.47 |
| C=CC(=O)N(C)CC(=O)N1CCOCC1 | 16.7 |
| N#Cc1ncoc1-c1cccc(C(F)(F)F)c1 | 6.02 |
| CC(C)CN(C1CC1)S(=O)(=O)C=Cc1ccccc1 | 13.3 |
| CCOc1cc(C)c(S(=O)(=O)n2cccn2)cc1C | 0.397 |
| C=CC(=O)NCC1CCOC1(C)C (centres unmarked) | -0.439 |
| Cc1c(CN2CCCC3(C2)OCCO3)cc(C#N)n1C | 0.384 |
| O=C(O)C1CCN(C(=O)C=Cc2ccccc2Cl)CC1 | 3.44 |
| CC1(C)OB(c2cccc(O)c2F)OC1(C)C | 14.3 |
| C=CC(=O)N1CC(C)(C)OC[C@@H]1C | 11.5 |
| Cc1ccc(CNC(=O)n2ccnc2)cc1 | 104 |
| c1cc2c(cc1OCC1CO1)OCO2 (centres unmarked) | 6.5 |
| CC1(C)OB(C2CCCNCC2)OC1(C)C.Cl (centres unmarked) | 5.32 |
| Cc1cc(Br)ccc1NC(=O)CNC(=O)CCl | 7.91 |
| N#Cc1cc(N2CCCCC2)ccn1 | -2.78 |
| O=C(CCl)Nc1ccccc1C(=O)NC1CCCC1 | 13.6 |
| COCC(C(N)=O)n1c(S)nc2ccccc2c1=O (centres unmarked) | 8.44 |
| OB(O)C1CCN(Cc2cc3n(n2)CCC3)C1 (centres unmarked) | 7.79 |
| Cc1cc(C)n(CC2CN(C3CCOC3=O)CCO2)n1 (centres unmarked) | 6.77 |
| COc1cc(C=C(C#N)C(=O)NC2CC2)ccc1O | 24.5 |
| Oc1cc(C(F)F)nc(S)n1 | 4.43 |
| O=C(CN1CCSC1=O)Nc1ccccc1Cl | 8.88 |
| C=CC(=O)N1CCCC(CN2CCCN(C(C)=O)CC2)C1 (centres unmarked) | 24.1 |
| C=CC(=O)N(C)C1CCCCC1C (centres unmarked) | 1.91 |

| Compound | Inhibition % [%] |
| --- | --- |
| Cc1ccc(C=C(C#N)C(N)=O)cc1 | 6.68 |
| C=CC(=O)Nc1cccc(C(=O)O)c1 | 4.88 |
| O=C(CCl)Nc1ccc(Cl)cc1F | 49.7 |
| Cc1ccc(C=CS(=O)(=O)NCC(=O)O)cc1 | 81.7 |
| C=CC(=O)NC1CC(=O)N(C2CC2c2ccccc2)C1 (centres unmarked) | 9.29 |
| N#Cc1ncn(-c2ccccc2N)n1 | 7.7 |
| Cl.O=C(CCl)Nc1cccnn1 | 26.1 |
| Cc1ccc(C=CS(=O)(=O)Nc2cnn(CCO)c2)cc1 | 14.7 |
| O=C(CCl)NC1CCN(C(=O)C2CCCCC2)CC1 | 8.22 |
| Cc1nc(CCCl)cs1 | 0.448 |
| Cc1nnc(NC(=O)CCl)s1 | 2.75 |
| CC(=O)SCCc1csc(-c2ccccn2)n1 | 9.81 |
| CC(C)OC1CCC(NC(=O)c2cccnc2S)CC1 (centres unmarked) | 3.15 |
| C=CC(=O)Nc1ccc2c(cnn2C(F)F)c1 | 6.45 |
| CC1(C)OB(c2ccccc2CC(F)(F)F)OC1(C)C | 7.09 |
| COc1ccccc1CCNC(=O)CCl | 15.8 |
| CCOc1cc(C)c(S(=O)(=O)n2cnc(C)c2)cc1C | 8.85 |
| C=CC(=O)NC1CCOC(c2cccs2)C1 (centres unmarked) | 6.75 |
| C=CC(=O)NCc1cc(C(F)(F)F)on1 | -2.22 |
| O=C(CCl)Nc1cc2c(cc1Cl)OCCCO2 | 20.3 |
| CC1CN(c2ccc(CNC(=O)CCl)cc2F)CC(C)O1 (centres unmarked) | 11.7 |
| COc1ccc(CNC(=O)C(C#N)=CN(C)C)cc1 | 9.07 |
| COc1ccc(F)cc1C1CO1 (centres unmarked) | 4.81 |
| Cc1cc(C(F)(F)F)c(C#N)c(S)n1 | -3.74 |
| CCc1nc(C)cn1S(=O)(=O)c1ccc(Cl)c(OC)c1 | 29.1 |

| Compound | Inhibition % [%] |
| --- | --- |
| Cc1n[nH]c(C)c1C=C(C#N)C(=O)N1CCCC1 | 6.67 |
| CCN1CCCN(c2ccc(C#N)nc2)CC1 | 12.1 |
| Cl.O=S(=O)(F)CCNc1ccc(F)cc1 | 36.8 |
| C=CC(=O)N1CCOC(c2ccc(OC(F)F)cc2)C1 (centres unmarked) | 4.4 |
| CN(c1ccccc1)S(=O)(=O)C=Cc1ccccc1 | 4.34 |
| O=S(=O)(F)c1ccc(S(=O)(=O)NC[C@H]2C[C@@H](O)C2)cc1 | 15.3 |
| Cc1cc(Cl)ccc1NC(=O)CN1CCSC1=O | 0.897 |
| N#Cc1ncn(C[C@H](O)c2ccc(F)cc2)n1 | 2.55 |
| CC(=O)c1ccccc1NC(=O)CCl | 19 |
| CC1(C)CCCN1S(=O)(=O)CCC1CCOC1=O (centres unmarked) | 11.9 |
| O=C(CCl)N(Cc1ccccc1F)C1CC1 | 16.9 |
| CCOC(=O)c1ccccc1NC(=O)CCl | 7.46 |
| CCOc1ccc(Nc2oc(CC)nc2C#N)cc1 | 9.73 |
| O=C(CCl)NCc1ccc(N2CCOCC2)nc1 | 15.2 |
| CC1(C)CN(C(=O)CCl)CCO1 | 47.1 |
| O=C(CCl)Nc1cc(C(F)(F)F)ccc1Cl | 4.72 |
| C=CC(=O)N1CCCC(C(=O)Nc2nccs2)C1 (centres unmarked) | 7.42 |
| CC1(C)OB(c2cccc(-n3cccn3)c2)OC1(C)C | 5.69 |
| C=CC(=O)N(C)Cc1cnc(C)s1 | 10.4 |
| O=S(=O)(F)N1CCC(CO)CC1 | 5.9 |
| CC1CC(N2CCOC(C)(C)C2)C(=O)O1 (centres unmarked) | 8.79 |
| Cc1ccc(F)cc1NC(=O)CN1CCSC1=O | 1.55 |
| Cc1c(C#N)c(NC(=O)CCl)n(-c2cccc(F)c2)c1C | 8 |
| N#Cc1ncn(Cc2ccccc2Cl)n1 | 3.41 |
| CC1CC(Sc2nnc(-c3ccccc3F)o2)C(=O)O1 (centres unmarked) | 1.67 |
